Key:
human IL-1β = target: T1, human IL-1β (human, UniProt P01584 117-269); test: ELISA, human IL-1β coated, PET301 titrated, anti-human IgG Fc-HRP detection
T1 construct: Bought protein; also called hIL-1β
Procedure: (§1) Analysis of binding of PET301 to human IL-1β and human TGF-β was performed by using ELISA. Human IL-1β (Sino Biological, 10139-HNAE), or human TGF-1 (R&D systems, 7754-BH), or human TGF-β3 (R&D systems, 8420-B3) were coated on a 96-well immunosorbent assay plate (Corning, 3590) at a concentration of 60 ng/well. Next day, the plate was washed with Phosphate Buffered Saline with Tween-20 (PBST; TEKNOVA, P1192). Blocking was performed by incubating the plate for 1 hour at room temperature using PBST to which 1% (w/v) bovine serum albumin (BSA) was added, and then the plate was washed 3 times. PET301 was diluted in PBST containing 1% (w/v) BSA to an appropriate concentration and treated in each well, binding was induced at room temperature for 1 hour, and the plate was washed three times. Peroxidase-bound anti-human IgG Fc goat antibodies (Invitrogen 31413) were diluted (1:10,000) in PBST containing 1% (w/v) BSA to induce binding, and washed 3 times with PBST, and then TMB substrate solution (Thermo Fisher Scientific, 34028) was reacted, and absorbance was measured at 450 nm. Based on the measured absorbance, EC₅₀ values were calculated by using the Prism 7 software (GraphPad Software) (A of FIG. 24A, B of FIG. 24A, A of FIG. 24B, and Table 4).

human TGF-β1 = target: T2, human TGF-β1 (human, UniProt P01137 part only); test: ELISA, human TGF-β1 coated, PET301 titrated, anti-human IgG Fc-HRP detection
T2 construct: Bought protein; also called human TGF-1; human TGF-31 (misprints)
Procedure: as §1

human TGF-β3 = target: T3, human TGF-β3 (human, UniProt P10600 301-412); test: ELISA, human TGF-β3 coated, PET301 titrated, anti-human IgG Fc-HRP detection
T3 construct: Bought protein; also called human TGF-3; human TGF-83 (misprints)
T3 sequence (looked up): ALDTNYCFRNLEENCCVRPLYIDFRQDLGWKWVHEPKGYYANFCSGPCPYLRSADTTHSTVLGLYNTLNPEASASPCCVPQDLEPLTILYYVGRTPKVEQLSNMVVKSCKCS
Procedure: as §1

human TGF-β2 = target: T4, human TGF-β2 (human, UniProt P61812 303-414); test: ELISA, PET301 coated, human TGF-β2 titrated, biotinylated anti-TGF-β2 antibody and streptavidin-HRP detection
T4 construct: Bought protein; also called human TGF-2; human TGF-32 (misprints)
T4 sequence (looked up): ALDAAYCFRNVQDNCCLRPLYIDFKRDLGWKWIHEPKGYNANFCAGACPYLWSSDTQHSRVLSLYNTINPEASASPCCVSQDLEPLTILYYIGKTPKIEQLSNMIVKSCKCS
Procedure: Analysis of the binding capacity of PET301 and human TGF-β2 was performed by coating PET301 on a 96-well plate for immunosorbent assay (Corning, 3590) at a concentration of 60 ng/well. Blocking was carried out at room temperature for 1 hour in PBST containing 1% (w/v) BSA, and human TGF-2 (Peprotech, 100-35B) at an appropriate concentration was diluted in PBST containing 1% (w/v) BSA to induce a binding reaction for 1 hour at room temperature, and then, anti-TGF-β2 biotinylated antibodies (R&D systems, BAF302) were treated to induce a binding reaction at room temperature for 1 hour. Streptavidin-HRP (R&D systems) was treated to induce a binding reaction at room temperature for 30 minutes, and the subsequent processes were performed in the same manner as described above (B of FIG. 24B, Table 4).

Chain of human TGF-β1 (P01137 279-390 limits assumed): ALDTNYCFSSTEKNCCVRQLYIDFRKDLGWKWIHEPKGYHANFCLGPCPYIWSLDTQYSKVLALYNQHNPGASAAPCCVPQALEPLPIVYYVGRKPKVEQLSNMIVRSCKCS

EC50 (human IL-1β): 0.226 nM | EC50 (human TGF-β1): 0.799 nM | EC50 (human TGF-β3): 0.357 nM | EC50 (human TGF-β2): 3.08 nM
B1: PET301, IL-1 and TGF-β bi-specific κλ heterodimeric polypeptide (Fc fusion)
chain 1: LEADKCKEREEKIILVSSANEIDVRPCPLNPNEHKGTITWYKDDSKTPVSTEQASRIHQHKEKLWFVPAKVEDSGHYYCVVRNSSYCLRIKISAKFVENEPNLCYNAQAIFKQKLPVAGDGGLVCPYMEFFKNENNELPKLQWYKDCKPLLLDNIHFSGVKDRLIVMNVAEKHRGNYTCHASYTYLGKQYPITRVIEFITLEENKPTRPVIVSPANETMEVDLGSQIQLICNVTGQLSDIAYWKWNGSVIDEDDPVLGEDYYSVENPANKRRSTLITVLNISEIESRFYKHPFTCFAKNTHGIDAAYIQLIYPVTNSGTVAAPRTVAAPSVFIFPPSDEQLKSGTASVVCLLNNFYPREAKVQWKVDNALQSGNSQESVTEQDSKDSTYSLSSTLTLSKADYEKHKVYACEVTHQGLSSPVTKSFNRGES[sequence of human IgG1 Fc with changes not given]GGGGSGGGGSGGGGSGGGGSGIPPHVQKSVNNDMIVTDNNGAVKFPQLCKFCDVRFSTCDNQKSCMSNCSITSICEKPQEVCVAVWRKNDENITLETVCHDPKLPYHDFILEDAASPKCIMKEKKKPGETFFMCSCSSDECNDNIIFSEEYNTSNPD
chain 2: SERCDDWGLDTMRQIQVFEDEPARIKCPLFEHFLKFNYSTAHSAGLTLIWYWTRQDRDLEEPINFRLPENRISKEKDVLWFRPTLLNDTGNYTCMLRNTTYCSKVAFPLEVVQKDSCFNSPMKLPVHKLYIEYGIQRITCPNVDGYFPSSVKPTITWYMGCYKIQNFNNVIPEGMNLSFLIALISNNGNYTCVVTYPENGRTFHLTRTLTVKVVGSPKNAVPPVIHSPNDHVVYEKEPGEELLIPCTVYFSFLMDSRNEVWWTIDGKKPDDITIDVTINESISHSRTEDETRTQILSIKKVTSEDLKRSYVCHARSAKGEVAKAAKVKQKVPAPRYTVEQPKAAPGQPKAAPSVTLFPPSSEELQANKATLVCLISDFYPGAVTVAWKADSSPVKAGVETTTPSKQSNNKYAASSYLSLTPEQWKSHRSYSCQVTHEGSTVEKTVAPTESDKTHTCPPCPAPELLGGPSVFLFPPKPKDTLMISRTPEVTCVVVDVSHEDPEVKFNWYVDGVEVHNAKTKPREEQYNSTYRVVSVLTVLHQDWLNGKEYKCKVSNKALPAPIEKTISKAKGQPREPQVCTLPPSREEMTKNQVSLSCAVKGFYPSDIAVEWESNGQPENNYKTTPPVLDSDGSFFLVSKLTVDKSRWQQGNVFSCSVMHEALHNHYTQKSLSLSPGAGGGGSGGGGSGGGGSGGGGSGIPPHVQKSVNNDMIVTDNNGAVKFPQLCKFCDVRFSTCDNQKSCMSNCSITSICEKPQEVCVAVWRKNDENITLETVCHDPKLPYHDFILEDAASPKCIMKEKKKPGETFFMCSCSSDECNDNIIFSEEYNTSNPD
notes: TGFβRII part is residues 24 to 184 of human TGFβRII (GenBank ACZ58377.1); also called IL-1/TGF-β bi-specific heterodimer

Reference: patent US20240254196A1 (MEDYTOX, published 2024)
